Laboratory results: PubChem BioAssay AID1347071 (National Center for Advancing Translational Sciences (NCATS), 2019)
The whole screen tested about 410,000 compounds, of which about 260 (0.063%) were called active. The inconclusive results got no clear call from the source; some entries with a clear call stand among them for comparison. Calls come from the whole dose curve; as a rule, active = well fitted activation curve with a large enough effect; inconclusive = small, poorly fitted or top-dose-only effect; inactive = no such curve, though single readings can be large or run the other way. No potency is given beside an inconclusive call; the fits are too rough.

Assay: qHTS for compounds that reverse cellular toxicity of Amyloid beta (A-beta) peptide in yeast: Primary Screen; note: nearly all actives have a fitted effect of over 55% in size
Conditions: yeast expressing A-beta42, growth rescue, OD600, 48 h; growth rescue: at 46.1 µM (top of the series), 0% DMSO, 100% iron-clioquinol control
Summary of the method: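 Yeast A-beta toxicity model in growth medium with pinned compounds, 48 h at 30 C; growth read as absorbance at 600 nm. Normalized to FeCl3/clioquinol equimolar mix (positive) and DMSO (negative).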
Potency is the fitted concentration of half-maximal effect; tags give direction and shape of the fitted curve.

| SMILES | growth rescue | Potency |
| --- | --- | --- |
| COc1ccc(C2C(C(=O)c3cccs3)=C(O)C(=O)N2CCN2CCOCC2)c(OC)c1 (configuration not stated) | inactive: 9.22% |  |
| COC(=O)c1c(NC(=O)c2ccc(S(=O)(=O)N3CCCCC3)cc2)sc2c1CCN(C)C2 | inactive: -12.2% |  |
| Cc1ccc(-n2c(SCc3nc(-c4ccccc4C)no3)nnc2-c2ccncc2)cc1C | inactive: -0.53% |  |
| O=[N+]([O-])c1cccc(-c2nc(-c3cccs3)c(-c3cccs3)[nH]2)c1 |  | inconclusive [activator, full curve] |
| C[C@@]12C(=O)N(CC3CCCO3)CC(=O)N1[C@H]1c3cc(Cl)ccc3OC[C@@H]1[C@@H]2c1ccccc1 (some centres not stated) |  | inconclusive [activator, single point] |
| CC(C)(C)NC(=O)NC(=O)COC(=O)CCC1CCCCC1 |  | inconclusive [activator, single point] |
| O=c1[nH]cnc2onc(-c3ccc(F)cc3)c12 | inactive: -22.5% |  |
| COC(=O)c1cc(NC(=O)Cn2ncc3c2-c2ccccc2OC3)cc(C(=O)OC)c1 | inactive: -13.5% |  |
| N#Cc1c(C(F)(F)F)cc(-c2cccs2)nc1SCC(=O)Nc1ccc(Cl)cc1 | inactive: -14.1% |  |
| O=C(CCc1nc2ccccc2c(=O)[nH]1)Nc1cc(Cl)ccc1N1CCCCC1 | inactive: 0.994% |  |
| Cc1ccc2c(c1)N(CC(=O)N1CCCc3ccccc31)C(=O)CO2 |  | inconclusive [activator, single point] |
| Nc1cc(OC(=O)c2cccs2)nn1S(=O)(=O)c1ccc(F)cc1 |  | inconclusive [activator, full curve, poor fit] |
| CC1(C)C(c2ccccc2)=[N+]([O-])C2(CCCCC2=O)N1O (configuration not stated) |  | inconclusive [activator, single point] |
| Cc1ccc(Nc2cc(Cl)nc(N)n2)c([N+](=O)[O-])c1 | inactive: -0.806% |  |
| O=C1C=CC(=O)N1CCCCCCCCCCN1C(=O)C=CC1=O | inconclusive: -66.1% [activator] |  |
| O=C(CCN1C(=O)C2CC=C(Cl)CC2C1=O)NCc1ccccc1 (configuration not stated) | inconclusive: 30.9% [activator] |  |
| COc1ccc(F)cc1S(=O)(=O)NCCc1csc(-c2ccc(Cl)cc2)n1 | inactive: -16.5% |  |
| Cc1ccc(CCNC(=O)CN2CCN(Cc3ccccc3F)C2=O)cc1 |  | inconclusive [activator, partial curve, poor fit] |
| CCOc1ccc(CN2C(=O)c3ccccc3Sc3ccc(C(=O)N4CCN(C)CC4)cc32)cc1 | inactive: -5.56% |  |
| S=c1[nH]nc(COc2ccc(Cl)cc2)o1 |  | inconclusive [activator, single point] |
| CCOC(=O)C1CCN(S(=O)(=O)c2ccc(C)c(C(=O)NC3CCCCC3)c2)CC1 | inactive: -2.48% |  |
| NC(=O)c1ccc2c(c1)OCCO2 | inactive: 1.04% |  |
| COc1ccc(S(=O)(=O)N2Cc3ccccc3CC2C(=O)Nc2nccs2)cc1 (configuration not stated) |  | inconclusive [activator, partial curve] |
| COc1ccc(OC)c(NC(=O)CSc2n[nH]c(-c3ccccc3Cl)n2)c1 | inactive: -4.12% |  |

| SMILES | growth rescue | Potency |
| --- | --- | --- |
| CCOc1ccc(-n2nc(CO)c(C(=O)NCc3ccc(Cl)cc3)n2)cc1 | inactive: 1.78% |  |
| OC1c2cc(Cl)cc(Cl)c2N=C2CCCN21 (configuration not stated) | inactive: -18.7% |  |
| Cc1ccc(S(=O)(=O)Nc2nc3ccccc3nc2N2CCOCC2)cc1 | inactive: 6.3% |  |
| Cc1noc(C)c1COc1ccc(C(=O)NCC(c2c(F)cccc2Cl)N(C)C)cc1 (configuration not stated) | inactive: 3.41% |  |
| CCOC(=O)c1cc(C#N)c(Oc2ccccc2)nc1-c1ccccc1 |  | inconclusive [activator, partial curve, poor fit] |
| O=S(=O)(c1cccc(S(=O)(=O)N2CCOCC2)c1)N1CCCCCC1 | inactive: 4.02% |  |
| CC1=CC(=C(C#N)c2nc3ccccc3s2)C=C(C)N1Cc1ccco1 | inactive: 9.72% |  |
| CCOc1ccc(C(C)=O)cc1N1C(=O)C2C3C=CC(C3=C(C)C)C2C1=O (configuration not stated) |  | inconclusive [activator, full curve, poor fit] |
| Cc1cc(C)c(C#N)c(Sc2ccc(N)cc2)n1 | inactive: -10.8% |  |
| CC(C)n1cc(C(N)=S)c(=O)n(Cc2ccccc2)c1=O |  | inconclusive [activator, single point] |
| O=C(Nc1ccc(F)c(Cl)c1)C1Cc2c(-c3ccc(Cl)cc3)ccnc2O1 (configuration not stated) | inactive: 4.59% |  |
| Cc1cc(O)c(C(c2cccc(F)c2)N2CCC(C)CC2)c(=O)n1Cc1ccco1 (configuration not stated) | inactive: 4.33% |  |
| O=S(=O)(Nc1cccc2cccnc12)c1ccccc1 |  | inconclusive [activator, single point] |
| COc1cccc(/C=C/C(=O)c2cccc([N+](=O)[O-])c2)c1 | inactive: -22.3% |  |
| COCCNC(=S)N1CCN(c2nc(-c3ccc(F)cc3)cs2)CC1 |  | inconclusive [activator, single point] |
| O=C(CCCc1ccccc1)Nc1nnc(C(F)(F)F)s1 |  | inconclusive [activator, partial curve, poor fit] |
| Cc1cc(=O)[nH]c(N/N=C/c2ccccc2Cl)n1 | inactive: 0.927% |  |
| CCOC(=O)C(NCc1ccccc1)(NC(=O)c1ccccc1)C(F)(F)F (configuration not stated) |  | inconclusive [activator, single point] |
| CC(C)CNC(=S)N1CCC(C(=O)c2ccc(F)cc2)CC1 |  | inconclusive [activator, partial curve, poor fit] |
| O=C1N(CC(=O)N2CCc3ccccc32)CCN1Cc1ccccc1Cl |  | inconclusive [activator, partial curve, poor fit] |
| COc1ccccc1NC(=O)COC(=O)C12CC3CC(CC(Cl)(C3)C1)C2 |  | inconclusive [activator, partial curve, poor fit] |
| CCCCCCCCN=C1NC(=O)CS1 |  | inconclusive [activator, partial curve, poor fit] |
| COc1ccc(Br)c(C(=O)Nc2cc3c(cc2N2CCCCC2)n(C)c(=O)c(=O)n3C)c1 | inactive: 20% |  |
| O=C1c2ccccc2OC2(C=Cc3ccccc3O2)N1Cc1ccccc1 (configuration not stated) |  | inconclusive [activator, full curve, poor fit] |

| SMILES | growth rescue | Potency |
| --- | --- | --- |
| COc1ccc(CNc2nc3c(c(=O)n(Cc4ccc(F)cc4)c(=O)n3C)n2C)cc1 |  | inconclusive [activator, partial curve] |
| COc1ccccc1N1CCN(/N=C/C=C/c2ccccc2[N+](=O)[O-])CC1 |  | inconclusive [activator, single point] |
| O=C(OCc1nc2scc(-c3ccccc3)c2c(=O)[nH]1)c1ccco1 |  | inconclusive [activator, single point] |
| CCOC(=O)C(C)(C)N(Cc1cccc(C)c1)S(=O)(=O)c1cccc([N+](=O)[O-])c1 |  | inconclusive [activator, partial curve, poor fit] |
| CCC(=O)Nc1ccc(Cl)c(NC(=S)NC(=O)c2cc3ccccc3o2)c1 | inactive: -1.5% |  |
| S=C(Nc1ccc(Br)cc1Cl)NN1CCOCC1 |  | inconclusive [activator, partial curve] |
| Cc1ccc(-n2c(COc3cccc(C)c3)n[nH]c2=S)cc1 |  | inconclusive [activator, single point] |
| COc1ccc(CCN(C)C(=O)COc2ccc(N(C)S(=O)(=O)c3ccc(C)cc3)cc2)cc1OC |  | inconclusive [activator, partial curve, poor fit] |
| COc1ccc(F)cc1C1=CC(=O)C[C@H](c2ccc3c(c2)OCO3)C1 | inactive: 16.9% |  |
| COc1ccc2[nH]c(=S)cc(C)c2c1 |  | inconclusive [activator, single point] |
| O=C(O)c1ccc(NCc2nc3ccccc3n2Cc2ccccc2)cc1 |  | inconclusive [activator, full curve] |
| O=C(Nc1nnc(-c2cccs2)o1)c1cc(-c2ccccc2)nc2ccccc12 |  | inconclusive [activator, partial curve, poor fit] |
| N#Cc1c(NCCCO)nc(-c2ccccc2)c2c1CCCC2 |  | inconclusive [activator, single point] |
| Cc1cc(S(=O)(=O)c2ccc([N+](=O)[O-])cn2)ccc1Br | inactive: -77.1% |  |
| COc1ccc(C2C(C#N)=C(N)Oc3n[nH]c(-c4ccccn4)c32)c(OC)c1OC (configuration not stated) |  | inconclusive [activator, full curve, poor fit] |
| Cc1ccccc1OCC(=O)NCCS(=O)(=O)N1CCN(c2ccc(F)cc2)CC1 |  | inconclusive [activator, partial curve, poor fit] |
| Cc1ccc(NC(=O)CSc2nnc(C)c(=O)n2N)cc1Cl | inactive: 9% |  |
| CCOc1c(Br)cc(/C=C(\C#N)C(=O)NC2CC2)cc1OC |  | inconclusive [activator, single point] |
| Cc1ccc(Cl)cc1N1CCN(Cc2nnnn2Cc2ccco2)CC1 |  | inconclusive [activator, partial curve, poor fit] |
| Cc1ccc(Nc2nc3ccccc3s2)cc1 |  | inconclusive [activator, full curve, poor fit] |
| Cc1ccc2c(c1)c1c(c(=O)n(-c3cccc(Cl)c3)c(=O)n1CC(=O)c1ccc(Cl)cc1)n2C | inactive: -19.9% |  |
| COC(=O)c1ccc(-n2c(/C=C/c3cc(OC)c(OC)c(OC)c3)nc3cc(Cl)ccc3c2=O)cc1 | inactive: 2.27% |  |
| O=C(COC(=O)COc1ccccc1Cc1ccccc1)Nc1cccnc1Cl |  | inconclusive [activator, partial curve, poor fit] |
| CCN(CC)c1ccc(/C=C(/C#N)c2nc3ccc(C)cc3[nH]2)c(OC(C)C)c1 | inactive: -22.3% |  |
